# Test results: PubChem BioAssay (NCI)
#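 Briefly, cells in 96-well plates were exposed to five compound concentrations for 48 h, and endpoints were estimated by linear interpolation. TGI: concentration producing complete growth inhibition.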 Certain results were filed several times, with different values. The list is limited to them. The source may hold further records. A record mostly stands for its own series of concentrations, not given here; some values may only mark the edge of a range. Numbered stars: 1 amine (or outer) side, 2 acyl side, 3 side chain; on linkers, the order of the positions; unused ones are H or OH. Bridge positions count the residues as written; N and C are the ends. Square brackets hold non-standard residues; d marks the D form. Peptide text beside a SMILES is read from it. * marks the point of attachment. ξ: configuration not given here. Phe(3,5-F2) = N[C@@H](Cc1cc(F)cc(F)c1)C(=O)O; ξThr(3S) = C[C@H](O[*:3])C(N[*:1])C(=O)[*:2]; Pro(4R-Me) = C[C@H]1CN[C@H](C(=O)O)C1; Pip = O=C(O)[C@@H]1CCCCN1; X1 = Cc1ccc(N*)c(F)c1; CO = O=C([*:1])[*:2]
# Tested on: MDA-MB-468 breast
# Test: NCI tumour cell line growth inhibition, 48 h
smiles,measurement,value
"Cc1ccc(NC(=O)N[C@@H](Cc2cc(F)cc(F)c2)C(=O)NC2C(=O)N3CCC[C@H]3C(=O)N3CCCC[C@H]3C(=O)N[C@@H](C)C(=O)N3C[C@H](C)C[C@H]3C(=O)O[C@H]2C)c(F)c1 (stereo partly drawn) ({X1-CO}-[Phe(3,5-F2)][ξThr(3S)]P[Pip]A[Pro(4R-Me)]; ester 2-C)",TGI,10.6 µM and 845 nM
